The source gives no read counts; variants with many changes may rest on few reads.
B1: LINE1-mini (parent)
chain: GGCAGAGCUCAACACAGCGUGGCAAAGUGGCUGUGGCUAGACUGCC

Variants of: B1
Test: self-cleavage, relative activity (ratio to wild type); higher = more cleavage; in vitro, sequencing; the parent is a self-cleaving ribozyme

| Variant | self-cleavage |
| --- | --- |
| GGCAAAGCUCAACACAGCGUGGCAAAGUGGCUGUUACUAGACUGCC | 0.02 |
| GGCAAAGCUCAACACAGCGUGGCAAAGUGACUUUGGCUAGACUGCC | 0.21 |
| GGCAAAGCACAACAAAGCGUGGCAAAGUGGCUGUGGCUAGACUCGC | 0.06 |
| GGCAAAGCGCAACACAGCCUGGCAAAGUGACUGUGGCUAGACUGCU | 0.08 |
| GGCAAAGCUCAACACAGCGAGUCAAAGUGGCUGUGGCUAGACUGCC | 0.05 |
| GGCACAGCUCCACUCAGCGUGGCAAAGUGGCUGUGGCUAGACUGCC | 0.01 |
| GGCACUCCUCAACACAGCAUGGCAAAGUGGCUGUGGUUUGAGUGCC | 0.18 |
| GGCACCGCUCAACACAGCGUGGCAAAGUCGCUGUGGCUAGACUGCC | 0.05 |
| GGCACCGCUCAACACAGCGUGGCAAAGUGGCUGUGGCUAGAGUGCC | 0.69 |
| GGCAAAGCUCAACACAGCGUGGCAAAGUGGCUGAGACUAGACUGCC | 0.05 |
| GGCAAAGCUCAACACAGCGUGGCAAAGUUGCUGGGGCUAGCCUGCC | 0.01 |
| GGCAAAGCUCAACACAGCGUGGCAAAGUGGCUAUGACUAGACUGCA | 0.03 |
| GGCAAAGCACAACACAGCGUGGCAAAUUGGCUCUGGCGAGACUGCC | 0.03 |
| GGCAAAGCUCAACACAGCGUGGCAAAGUGGCAGUGGCCCGAAUGCC | 0.04 |
| GGCAAAGCGCAACACAGCGUGGCAAACUGGCUGUGGCACGACUGCC | 0.05 |
| GGCACCGCUCAACACAGCGUGGCAAAGUGGUUCUGGCUAGACUGCC | 0.06 |
| GGCAAAGCUCAACACAGCGUGGCAAAGUGGCUGGGGCUAGACUUCC | 0.03 |
| GGCACUGCUCAACACCGCGUGGCAAAGUGGCUGUGGCUUGACUGCC | 0.01 |
| GGCACUGCUCAAUACAGCGUGGCAAAGUGGCUGUGGCUAGACUGCU | 0.07 |

| Variant | self-cleavage |
| --- | --- |
| GGCACUGCUCAACACAGCGUGGCAAAGUGGCUGUGGCUAGACUGGC | 0.2 |
| GGCAAAGCUCAACACAGCGUGGCAAAGCGGCUGUGGCUCGGCUGCA | 0.1 |
| GGCACGGCUCAACACAGCGAGGCAAAGAGUCUGUGGCUAGACUGCC | 0.03 |
| GGCACGGCUCAACACAGCGUGGCAAAGUGGCUGUGGCUCGACCGCC | 0.04 |
| GGCAAAGCUCAACACAGCGUGGCAAAUUGGCUGUGGCUAAACUGCC | 0.04 |
| GGCAAAGCACAACACAGCGUGGCAAUGGGGCUGUGGCUAGACUGCC | 0.07 |
| GGCAAAGCUCAACACAGCGUGGCAAAGUAGCUGUGGCCAUACUGCC | 0.17 |
| GGCAAAGCUCAACACAGCGUGGCAAAGUGGCUGUGGCGAUACUGCC | 0.13 |
| GGCAAAGCUCAACACAGCGCAGCAAAGUGCCUGUGGCUACACUGCC | 0 |
| GGCAAAGCUCAACACAGCGUGGCAAAUUGGCUGUGGCUACACUGAC | 0.04 |
| GGCAAAGCUCAACACAGCGUGGCAAAGUGGCUGUGUCUAGACUCCC | 0.13 |
| GGCAAAGCUCAACACAGCGUGGCAAAGUGGCUGUAGCUAGAGUGCC | 0.09 |
| GGCAAAGCAUAACACAGCGUGGCAACGUGGCUGUGGCUAGACUGCC | 0.01 |
| GGCACGGCUCAAGACACCGUGGCAAAGUGGCUGUGGCUAGACUGCC | 0.06 |
| GGCAAAGCUCAACACAGCGUGGCAAAGUCGCUCUGGCUACACUGCC | 0.05 |
| GGCAAAGCACAACACUGCGUGGCAAAGUGGCUGUGGCUAGACUGGU | 0.2 |
| GGCAAAGCUCAACACAGCGUGGCAAAGUGUCUUUGGCUAGACUGCC | 0.11 |
| GGCAAAGCUCAACACAGCGUGGCAAAGUGGCUGACGCUAGACUGAU | 0.02 |
| GGCAAAGCGCAACAUAGCGUGGCAAAGUGACUGUGGUUAGCCUGCC | 0.02 |

| Variant | self-cleavage |
| --- | --- |
| GGCACUGCUCAACACAUCGUCGCGAAGUGGCUGCGGCUAGACUGCC | 0.08 |
| GGCAAAGCUCAACACAGCGUGGCAAAGUGUGUGUGGCUAGACUGCC | 0.09 |
| GGCAAAGCUCAACACAGCGUGGCAAAGCGUUUGUGGCUAGACUGCC | 0.04 |
| GGCAAAGCCCAACACAGCGUGGCAAAGUGGCUGCGGCUAUACUGCC | 0.01 |
| GGCACCGCUCAACACAGCGUGGCAAAGUGGGUGUGGCUAGACUGCC | 0.05 |
| GGCAAAGCUCAACACAGCGUGGCAAAGUUGCUGUGGCUAGACUGCU | 0.02 |
| GGCAAAGCUCAACACAGCGUGGCAAAGAGGCUGUGGCUAGACUGCU | 0.04 |
| GGCAAAGCACAACACACUGUGGCAAAGUGGCUGUUGCUAGACUACG | 0.03 |
| GGCACGGCUCAACACAGCGUGGCAAAGUGGCAAUGGCUAGACUGCC | 0.03 |
| GGCAAAGCUCAACACAGCGUGGCAAAGUGCCUGUGGCUUCACUGCC | 0.03 |
| GGCAAAGCUCAACACAGCGUGGCAAAGUGGCUGAGGAUAGACUGCC | 0.06 |
| GGCAAAGCUCAACACAGCGUGGCAAAGUGGCUUUGGCGAGAAUGCC | 0.01 |
| GGCACGGCUCGACACAGCGAGUCAAAGUGGCUGUGGCUAGACUGAC | 0.01 |
| GGCACAGCUCCACACGGCGUGGCAAAGUGGCUGGGGCUAGACUGCC | 0.02 |
| GGCACAGCUCCACAAUGCGUGGCAAAUUGGUUGUUGCUAGACAGCC | 0 |
| GGCAAAGCUCAACACAGCGUGGCAAAGUGGCUGUGACUAGACUUCC | 0.36 |
| GGCAAAGCGCAACACACCGUUUCAAAGUGGCUGUGGCUAGACUGCC | 0.17 |
| GGCAAAGCUCAACACAGCGUGGCAAAGUGGCUCUGGCUAGACUGCA | 0.2 |

— the RNAGym collection of RNA variant scans (doi:10.7554/elife.90254)
